This sample is rich in variants without activity.
B1: tRNA (parent)
chain: CUCUCGGUAGCCAAGUUGGUUUAAGGCGCAAGACUUUAAUUUAUCACUACGAAAUCUUGAGAUCGGGCGUUCGACUCGCCCCCGGGAGAUUUUUUCCUCGAGCAA

Variants of: B1
Experiment: nonsense suppression (GFP-seq) (ratio to wild type); higher = more function; SUP4oc tRNA, yeast GFP reporter sort-seq
How it was run: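 Each variant's nonsense suppression (GFPSEQ) is a cell-share-weighted bin median GFP/RFP relative to the unmutated parent tRNA. Yeast with genome-integrated tRNA variants from a ~3% random-mutation library, a galactose-driven GFP ochre reporter and RFP were grown in raffinose/galactose medium with 80 mg/L adenine, then sorted into GFP/RFP bins for Illumina sequencing. Variants needed ≥100 reads and ≥30 cells.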

Nonsense suppression, ≤ 0.026:
C27A C29A G88A
C27U G61A
C27A A74U C79U
G26C C34G C75A A87G
G26C C34G C75A A87U
C27A C29A C72A
C27U C79U
G26C G32U
C27A A33G U35A U57A G65A A87U
C27G C29U
G26U C68U
G26A G85C
G25U A60U C79U
G25U G86C
C27G G32U C75A C81G G88C
C27U G59A C79G G85C
C27A A33G A74G G84U
G25U C64U C68A
G25U G32C A54G C77U
C27U G28C A30U G85U
C27G A33U G67A C83U
C27G C79G
C27G C82G G84C
G26C C64A G85C
C27A C56G U76C
C27G G32U
G25U C34A
C27G U57G C68A
G26U C29U A74G
C27A A30C A60G C77G C81A
G26A G59C
G25U G73A C79A G84U
C27G U35G
C27A U35G U55A
G25U G59U U76G
C27A C80U
G26C G86A
G26C A30U
G26A C29G C77G
C27U C83A
G26A G32U G84C
C27U A31G
G25U A60C
C27A G66A
C27U G28C C56A
C27A G61U A62C
C27G A60C
C27G C68U
G26U A30G U58A G84C G88A
G26A U70A
G25U G66U
G26U U55G U63G U70C U76A
G26U A89U
C27G G78C C83U
G25U U63C U76G G85U
G25U U35G G84C
G26U C27A A60G U76C
G26U G28U G61U G65A G67U G69C
G26A G73C
C27A A31G C80A
G25U U57A C64A
G26U A74C U76G
G26A A33G G84C
G25U C27U G84C
C27A A87U
C27A A87G
C27U G32A C79A
C27G C29A C56A
G26U C75U
G25U G61U C68U
G26A G61U G86C
G26C G32C G59C G86U
G26U A31G
G26C U63A
G26C G61C U76A
G26C A31U C68G
C27U G59A
G26C U57G U58G
G26C A33U G69C
C27A G66A U76C
G26C G85C
G26U C75A C82G
C27U A33C G84U
G26A U35A
C27G A89G
G26C U57C C68A G73C
G25U U58C
G25U U58A
G26U A30G U63G G65C
G26C C34A G65U
G25U U55G G86A
G25U A60G G61A
C27G G85C
G26A A30U
G26A A30C
G26C A31G U63C C82U
G25U U63C C79A
G26A G78U
C27A G32A A54U U58G
G26A C27G G88C
C27U A62G
C27G C80G
G26C A60U U76C
G26C C27G U35C G59C G67A
C27A U35C G66C G88C
C27U A54U U58A
G25U G69C U70C
C27G U55C A62G
C27A G84U
C27G U55A G69C
C27U G28A U35A C83A
G26U C83A
G26U C83U
C27A G73U A74U G84A
G26U C81G
G26U G28U
G25U A89C
C27U C72G C83G G86A
G25U C29G G65A
C27G U35G G61U U70A
C27A U35G C64G
G26A G32C C82G G84A
G26C G59C G88A
G26C A33U C34G C72U
C27U G59U A60C
G26A G65A
G26A G65C
G26C A30U G65U
C27U C34A C64U
G25U C27U A33G
C27U C29U
G26C C81U
G26U A33U A89U
G25U C27G U63C
G25U G61C G69A
G26U A31C A54C C77G G78C
G26A C27A
G26A C27G
C27U C34A A60C A62U G65C
C27U U35C A74G
G26U A60C A74C
C27A C34G U57G
C27A A60U U76A
C27U G28U G69A
C27U A60C A62U G78C
C27A A31U G59C G66C C79A
G26A C72G U76C
C27U C29U A54U U76A
C27A U55A G85U
C27U A30U G65C
G26C C75U
C27A G69C
C27A G32A
G25U C56A G86U
C27U A30C
C27U A30G
G26A A62C U76A C81U
G25U C34G C79G
C27A C34G A74U
G26A C82A
G25U U57C C64U
G26A A60C C82G
C27G A30U G61C A89U
C27A U55C U71C
C27U G61U G73A
G26C A31G
C27G C34A

— the RNAGym collection of RNA variant scans (doi:10.1101/gad.245936.114)
